Data: PMC12765065
No constants are given. Whether binding was seen depends on the method and setting. In cells and extracts the contact can be indirect. Some results given as binding are weak or reduced against the parent protein; the word gives no strength. For some assays here: Where a sequence is shown, tags or fusion partners need not be part of it.

Protein sequences, listed by entry. Tags and fused reporters are not part of them.
UniProt P08151: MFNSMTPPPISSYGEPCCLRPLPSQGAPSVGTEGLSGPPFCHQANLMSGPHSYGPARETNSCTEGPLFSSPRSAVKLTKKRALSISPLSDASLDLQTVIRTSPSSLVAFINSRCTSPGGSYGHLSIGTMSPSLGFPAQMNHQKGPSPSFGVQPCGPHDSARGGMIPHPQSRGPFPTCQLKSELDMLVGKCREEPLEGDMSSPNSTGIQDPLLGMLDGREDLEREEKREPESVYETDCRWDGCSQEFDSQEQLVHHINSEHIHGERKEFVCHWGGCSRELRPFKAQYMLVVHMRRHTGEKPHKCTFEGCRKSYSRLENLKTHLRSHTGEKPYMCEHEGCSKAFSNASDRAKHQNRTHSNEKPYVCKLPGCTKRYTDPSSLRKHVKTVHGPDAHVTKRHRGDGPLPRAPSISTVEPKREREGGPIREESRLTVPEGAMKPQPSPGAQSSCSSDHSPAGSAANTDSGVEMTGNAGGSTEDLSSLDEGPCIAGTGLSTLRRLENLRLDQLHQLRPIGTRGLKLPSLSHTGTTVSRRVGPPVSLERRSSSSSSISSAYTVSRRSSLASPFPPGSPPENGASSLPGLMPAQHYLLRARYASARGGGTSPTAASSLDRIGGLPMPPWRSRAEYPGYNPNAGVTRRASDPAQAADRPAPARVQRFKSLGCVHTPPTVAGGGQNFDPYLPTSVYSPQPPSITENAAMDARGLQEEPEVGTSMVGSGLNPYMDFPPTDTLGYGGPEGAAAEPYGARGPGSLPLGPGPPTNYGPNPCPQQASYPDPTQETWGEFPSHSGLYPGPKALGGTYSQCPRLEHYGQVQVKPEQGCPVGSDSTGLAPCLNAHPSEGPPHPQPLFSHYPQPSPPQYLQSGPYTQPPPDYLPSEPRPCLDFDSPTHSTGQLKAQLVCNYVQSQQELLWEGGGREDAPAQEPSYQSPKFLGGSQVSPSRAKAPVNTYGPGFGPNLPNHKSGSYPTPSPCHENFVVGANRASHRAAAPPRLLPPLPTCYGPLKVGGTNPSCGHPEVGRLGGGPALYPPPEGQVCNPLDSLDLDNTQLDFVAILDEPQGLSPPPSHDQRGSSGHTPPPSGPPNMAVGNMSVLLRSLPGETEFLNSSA
UniProt P04406: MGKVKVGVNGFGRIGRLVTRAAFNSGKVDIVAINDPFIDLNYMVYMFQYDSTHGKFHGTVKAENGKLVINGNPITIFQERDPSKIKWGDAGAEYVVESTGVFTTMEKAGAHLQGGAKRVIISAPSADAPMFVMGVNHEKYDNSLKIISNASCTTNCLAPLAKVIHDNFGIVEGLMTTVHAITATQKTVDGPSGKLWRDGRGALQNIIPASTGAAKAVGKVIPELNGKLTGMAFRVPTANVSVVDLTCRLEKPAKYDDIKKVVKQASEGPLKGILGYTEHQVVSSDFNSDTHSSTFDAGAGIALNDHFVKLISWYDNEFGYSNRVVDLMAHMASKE
UniProt Q14974: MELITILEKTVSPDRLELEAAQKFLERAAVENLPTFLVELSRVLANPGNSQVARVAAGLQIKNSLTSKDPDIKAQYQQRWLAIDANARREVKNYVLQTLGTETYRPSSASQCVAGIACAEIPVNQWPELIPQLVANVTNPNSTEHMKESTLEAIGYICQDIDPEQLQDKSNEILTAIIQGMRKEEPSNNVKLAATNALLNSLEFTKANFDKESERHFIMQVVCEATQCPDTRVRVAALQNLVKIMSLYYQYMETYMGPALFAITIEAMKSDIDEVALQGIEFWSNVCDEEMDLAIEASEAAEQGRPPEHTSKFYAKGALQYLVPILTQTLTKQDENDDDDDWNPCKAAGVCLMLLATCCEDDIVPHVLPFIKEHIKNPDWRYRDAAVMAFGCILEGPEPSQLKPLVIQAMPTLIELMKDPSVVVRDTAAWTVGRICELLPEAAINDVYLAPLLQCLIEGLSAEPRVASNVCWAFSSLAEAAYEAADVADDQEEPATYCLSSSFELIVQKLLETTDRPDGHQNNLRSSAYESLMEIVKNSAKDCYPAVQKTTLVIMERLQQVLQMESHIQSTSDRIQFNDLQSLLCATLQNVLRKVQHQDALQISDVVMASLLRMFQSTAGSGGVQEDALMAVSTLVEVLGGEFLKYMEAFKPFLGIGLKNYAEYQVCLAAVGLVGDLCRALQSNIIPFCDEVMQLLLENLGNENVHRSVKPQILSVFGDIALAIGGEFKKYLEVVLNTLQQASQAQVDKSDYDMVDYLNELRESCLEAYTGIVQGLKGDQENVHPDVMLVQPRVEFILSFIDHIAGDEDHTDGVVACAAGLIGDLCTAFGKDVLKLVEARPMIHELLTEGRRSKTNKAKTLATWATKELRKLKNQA

Key:
[1] = target: T1, HA-tagged VAV1-WT (human) (UniProt P15498); assay: co-IP; PANC1 cells (2 x 10^6) transfected with VAV1-HA and GLI1-3xFLAG; IP with 2 μg anti-GLI1 or 0.05 μg anti-HA; blots with anti-HA and anti-GLI1
T1 sequence: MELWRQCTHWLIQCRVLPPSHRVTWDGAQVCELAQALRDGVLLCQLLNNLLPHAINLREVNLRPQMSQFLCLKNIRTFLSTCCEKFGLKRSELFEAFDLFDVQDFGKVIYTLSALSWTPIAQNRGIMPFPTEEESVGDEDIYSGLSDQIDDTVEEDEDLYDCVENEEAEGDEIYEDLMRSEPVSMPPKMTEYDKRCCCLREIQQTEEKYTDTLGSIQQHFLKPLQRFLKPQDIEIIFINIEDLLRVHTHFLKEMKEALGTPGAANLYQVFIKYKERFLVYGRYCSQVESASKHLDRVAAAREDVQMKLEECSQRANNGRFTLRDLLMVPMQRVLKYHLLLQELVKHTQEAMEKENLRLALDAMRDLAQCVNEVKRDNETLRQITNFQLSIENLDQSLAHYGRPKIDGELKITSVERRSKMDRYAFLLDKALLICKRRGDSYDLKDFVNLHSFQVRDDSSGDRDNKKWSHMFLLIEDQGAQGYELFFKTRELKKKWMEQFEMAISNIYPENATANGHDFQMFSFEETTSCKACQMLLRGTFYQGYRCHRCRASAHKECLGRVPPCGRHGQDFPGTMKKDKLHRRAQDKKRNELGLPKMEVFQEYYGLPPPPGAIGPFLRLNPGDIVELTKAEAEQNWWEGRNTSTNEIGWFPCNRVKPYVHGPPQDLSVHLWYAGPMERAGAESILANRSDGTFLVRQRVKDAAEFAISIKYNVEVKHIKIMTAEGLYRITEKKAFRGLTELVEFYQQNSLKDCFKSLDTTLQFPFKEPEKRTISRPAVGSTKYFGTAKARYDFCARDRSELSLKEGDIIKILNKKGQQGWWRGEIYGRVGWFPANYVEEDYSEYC

[2] = target: T2, VAV1 (endogenous) (human (endogenous in MIA PaCa2 and Capan-2)) (UniProt P15498); assay: co-IP; endogenous proteins, Capan-2 cells (4-5 x 10^6); IP with 2 μg anti-VAV1 or normal rabbit IgG; blots with anti-GLI1 and anti-VAV1
T2 sequence: T1 sequence

[3] = target: T2, VAV1 (endogenous) (human (endogenous in MIA PaCa2 and Capan-2)); assay: proximity ligation; endogenous proteins in fixed, permeabilised MIA PaCa2 cells; Duolink PLA, mouse anti-VAV1 and rabbit anti-GLI1; amplification 180 min; foci per nucleus counted
[4] = target: T2, VAV1 (endogenous) (human (endogenous in MIA PaCa2 and Capan-2)); assay: proximity ligation; negative control in fixed, permeabilised MIA PaCa2 cells; Duolink PLA, mouse anti-VAV1 and rabbit anti-GAPDH; amplification 60 min
[5] = target: T3, FLAG-tagged WT VAV1 (human) (UniProt P15498); assay: co-IP; PANC1 cells (2 x 10^6) overexpressing FLAG-tagged VAV1-WT or VAV1-ΔNLS1, 24 h after transfection; IP with 0.05 μg anti-HA (so in the source) or normal mouse IgG; blots with anti-VAV1 and anti-IMPORTIN β1 (endogenous)
T3 sequence: T1 sequence

Q: For “FLAG-tagged GLI1 (from UniProt P08151 1-1106)”, which binding [1] is on record?
A: Its binding is “binds”.

Q: What does the source list for “GLI1 (endogenous) (from UniProt P08151 1-1106)”?
A: binding [2]: binds; binding [3]: binds

Q: Which binding [4] does the source give for GAPDH (from UniProt P04406 1-335) here?
A: The binding was “no binding”.

Q: For IMPORTIN β1 (from UniProt Q14974 1-876), which binding [5] is on record?
A: Its binding is “binds”.
